Results published in the BET-seq Pho4 binding data (Le et al. 2018).
The list shows a part of the results. Values were computed here from the reads of four pooled replicates and scatter widely.

Biological target: T1, Pho4 (S. cerevisiae) (UniProt P07270)
T1 sequence: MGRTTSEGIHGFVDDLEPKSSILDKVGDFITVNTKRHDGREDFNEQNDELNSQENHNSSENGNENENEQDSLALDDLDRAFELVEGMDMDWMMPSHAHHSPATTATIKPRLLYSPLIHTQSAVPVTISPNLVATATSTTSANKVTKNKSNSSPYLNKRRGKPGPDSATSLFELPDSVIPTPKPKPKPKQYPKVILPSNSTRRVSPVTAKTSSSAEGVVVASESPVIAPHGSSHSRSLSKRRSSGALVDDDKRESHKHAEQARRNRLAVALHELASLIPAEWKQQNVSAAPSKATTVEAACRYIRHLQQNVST
Test: relative binding free energy (BET-seq); higher = weaker binding
Conditions: reference: library average

| Sequence | relative binding free energy [kcal/mol] |
| --- | --- |
| GTACTCACGTGGGATA | 0.26 |
| GGTTCCACGTGTTCGT | 0.15 |
| TGAAACACGTGTTGGA | 0.18 |
| TGGAACACGTGGAAGG | 0.11 |
| ATGCGCACGTGTTGGC | 0.07 |
| AGATGCACGTGCTAGT | -0.06 |
| GTTAGCACGTGTATTG | 0.11 |
| ATGGTCACGTGGCGCT | 0.12 |
| TGTCTCACGTGTAAAG | 0.39 |
| GGTTTCACGTGCTTTT | 0.4 |
| CAGGGCACGTGGTGTC | -0.06 |
| AGCAGCACGTGTTTAG | 0 |
| TGTGTCACGTGTGGTA | 0.17 |
| TGCGACACGTGGTGTG | -0.16 |
| TGTGTCACGTGCAGCG | 0.02 |
| TTCCGCACGTGTTAGG | -0.04 |
| CGGGTCACGTGGCATT | -0.02 |
| CGTTACACGTGTCGGG | 0.09 |
| TGTACCACGTGGCGGG | -0.21 |
| CGGGACACGTGAGGGC | 0.17 |
| AGGGTCACGTGTGGGC | 0.03 |
| GGATTCACGTGTATAT | 0.24 |
| CTTTACACGTGATGTG | 0.05 |
| AATATCACGTGTGGCT | 0.2 |
| TCAGGCACGTGAGGTG | 0.08 |

| Sequence | relative binding free energy [kcal/mol] |
| --- | --- |
| CTTGGCACGTGGATGG | 0.01 |
| GGCTACACGTGGTGGT | 0 |
| GATGTCACGTGTCGGT | 0.1 |
| TCTAGCACGTGGGGTG | -0.36 |
| CGATTCACGTGTGTGG | 0.27 |
| GAATGCACGTGGTCTG | 0.02 |
| TAAGTCACGTGTGGAT | 0.21 |
| TCAGGCACGTGCGTTT | -0.02 |
| TTTAACACGTGGGGTA | -0.16 |
| CAGTGCACGTGCTGGG | 0.04 |
| TGGATCACGTGCGAGG | 0.06 |
| GTTGGCACGTGACAGG | 0.08 |
| GCACGCACGTGTGGTT | -0.02 |
| TTTGGCACGTGGCGAG | -0.23 |
| GCAGGCACGTGTTTGG | -0.09 |
| TACTGCACGTGTTTGT | 0.05 |
| GATTGCACGTGTTTTG | 0.14 |
| AACGGCACGTGCTGGT | -0.13 |
| CGTTTCACGTGTGATG | 0.14 |
| TTTGACACGTGCGGCT | 0.04 |
| ATGTTCACGTGTTCAT | 0.15 |
| ATAAACACGTGGTTTG | -0.18 |
| TTCTTCACGTGTTAAA | 0.27 |
| TAGGTCACGTGCTTAT | -0.02 |
| AGCGGCACGTGAGGAG | 0.1 |

| Sequence | relative binding free energy [kcal/mol] |
| --- | --- |
| TTGTGCACGTGGTATG | -0.13 |
| TAGTTCACGTGTTTAA | 0.32 |
| CGGGGCACGTGTATGC | -0.11 |
| GGGTGCACGTGTGTTG | 0.07 |
| GTTATCACGTGTGATA | 0.1 |
| AAGTTCACGTGTCATT | 0.23 |
| AGGTTCACGTGATGAG | 0.2 |
| TTTGGCACGTGAAGGG | 0.14 |
| TGTACCACGTGGAAGT | -0.01 |
| TGTGCCACGTGATCGT | 0.04 |
| GGCTGCACGTGGTTTT | 0.02 |
| AATTACACGTGTTGGT | 0.04 |
| GAGGGCACGTGTGCCG | -0.06 |
| TTATACACGTGGGCAT | -0.13 |
| CGGTTCACGTGCTAGG | 0.27 |
| TAGGCCACGTGAGAGT | 0.15 |
| GGAAACACGTGGTGGT | -0.07 |
| CTTGTCACGTGTGCGG | 0.08 |
| CAGTGCACGTGATTTT | 0.23 |
| GATGTCACGTGTTTAC | 0.18 |
| ATGTGCACGTGGAAAG | 0.07 |
| GGACACACGTGGTGTT | 0.04 |
| GTTGACACGTGTTCTG | -0.06 |
| GAAATCACGTGTCGTT | 0.42 |
| GTAAGCACGTGGGATA | -0.12 |

| Sequence | relative binding free energy [kcal/mol] |
| --- | --- |
| AAGAGCACGTGGTTTG | -0.07 |
| AATGTCACGTGTTACG | 0.14 |
| AGTGACACGTGGAGTT | 0.08 |
| GTTTTCACGTGGATTG | 0.37 |
| TTCTGCACGTGTGTAT | 0.03 |
| ATAGACACGTGTAAGG | 0.07 |
| TGACGCACGTGTATGG | -0.16 |
| TTTCACACGTGTAAGG | 0.15 |
| GTGTACACGTGGGGCA | -0.16 |
| CGTATCACGTGCTGTG | 0.1 |
| GATTACACGTGTTTGT | 0.08 |
| TGTGACACGTGTTTAA | 0.12 |
| GGATGCACGTGGGCGT | -0.19 |
| GGGACCACGTGTGAGG | 0.21 |
| CTGTTCACGTGGCATG | 0.12 |
| ATGGGCACGTGGGCAC | -0.22 |
| TTTTTCACGTGGCCAG | 0.34 |
| TTAGGCACGTGCTGGC | -0.15 |
| TCTGGCACGTGTGGAA | -0.03 |
| TTGGCCACGTGGTGGA | -0.06 |
| TCACGCACGTGTGTGT | -0.12 |
| TAGTTCACGTGAGGCG | 0.4 |
| TATGTCACGTGTACAT | -0.03 |
| ACTTCCACGTGTGGTT | 0.17 |
| AATGGCACGTGGTAGG | -0.24 |

| Sequence | relative binding free energy [kcal/mol] |
| --- | --- |
| AGGTTCACGTGTCGGC | 0.34 |
| AGCAACACGTGTTTGT | 0.02 |
| GGGGGCACGTGGAATG | 0.02 |
| TGATGCACGTGGGAGT | 0.03 |
| TCGGGCACGTGAGAGG | 0.24 |
| GTCTTCACGTGGGGGA | 0.12 |
| GTACTCACGTGCGGGT | 0.11 |
| ACGTTCACGTGAGAGG | 0.31 |
| TAGAGCACGTGGGTGT | -0.2 |
| GGATACACGTGTCGGG | 0.26 |
| GGGGACACGTGGGCAG | -0.1 |
| CTGGGCACGTGAGTGT | 0.09 |
| GTTAACACGTGGCATT | 0 |
| TGTATCACGTGGCGGC | 0.08 |
| TTCAACACGTGGGGTC | -0.06 |
| CAGGTCACGTGTTTAT | 0.2 |
| TAAGGCACGTGGCTTT | -0.2 |
| GTAGTCACGTGAGGTC | 0.25 |
| ATGGACACGTGTAGGT | 0.1 |
| TGGCACACGTGTTCTG | 0.1 |
| ACTTGCACGTGTGATT | 0 |
| CAGTGCACGTGTATGT | -0.17 |
| TTGATCACGTGGCATA | 0.15 |
| AGGAACACGTGATTTT | 0.17 |
| ATGAGCACGTGGGTCT | -0.25 |

| Sequence | relative binding free energy [kcal/mol] |
| --- | --- |
| TGGTTCACGTGCATAG | 0.15 |
| TGGTGCACGTGGGGAT | -0.1 |
| TTTTACACGTGACATT | 0.27 |
| AGTGCCACGTGGGGAG | -0.16 |
| CTTGGCACGTGGGTAT | -0.32 |
| CATGTCACGTGAGTAT | 0.32 |
| CTAGGCACGTGTCGTG | -0.09 |
| TTAAGCACGTGCTGTA | -0.24 |
| TTGGTCACGTGCGTTC | 0.18 |
| TTGTGCACGTGAGCGG | 0.14 |
| GTCTTCACGTGAAGTA | 0.5 |
| GTTGACACGTGGTGTG | -0.08 |
| TTAAGCACGTGGGGAA | -0.07 |
| GAATGCACGTGTTATT | 0.15 |
| ATGGACACGTGCTGGA | 0 |
| TCGGGCACGTGCTGTG | -0.17 |
| AGAGACACGTGTCGGG | 0 |
| GTGATCACGTGGGTAT | 0.07 |
| GCCGTCACGTGGGGCG | 0.02 |
| AATTGCACGTGCGATG | -0.08 |
| TTGTCCACGTGTGGGT | 0.12 |
